This is an account of results in the supplement of paper PMC7826260.

Some of the results follow. The data describe in vitro nicking of single-stranded DNA by Rep domains (1 h at 37 °C, 3 µM enzyme); the outer parts of the 90-letter strands are left off. The score is log2 (uncut reads / reads without enzyme); uncut sequences lie near 0, cut ones below; no hit call is given. Shares of all reads are compared; uncut strands gain when others are lost, and binding without cutting may add a little.

This experiment concerns T1, Rep nickase domain of tomato golden mosaic virus.
T1 sequence (protein, residues 1-124, tag omitted): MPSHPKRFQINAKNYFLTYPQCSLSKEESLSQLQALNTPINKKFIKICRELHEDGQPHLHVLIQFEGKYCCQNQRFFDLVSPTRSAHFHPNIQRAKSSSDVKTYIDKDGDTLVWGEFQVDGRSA
The experiment can be described thus: uncleaved DNA left, log2 of reads against the no-enzyme library (log2 ratio); higher = less cleavage (more negative = more Rep cleavage of the k-mer); sequences stand for … in CTCGTCCG…ACCGGAGA
How it is done:
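A pool of 90-nt single-stranded DNAs with seven random bases just before the constant AC of the nick site (name = the seven bases) was cut by 3 µM recombinant His6-SUMO-tagged Rep nickase domain (300 nM DNA, 50 mM HEPES pH 8.0, 50 mM NaCl, 1 mM MnCl2, 1 h, 37 °C, three replicates). Uncut DNA was amplified and sequenced.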
As for CCTAGAT, the “uncleaved DNA left (log2)” value came to 0.178. The value for GAAAGGA was 0.159; that for TGTACGA was -0.00771. The value for AACCATG was 0.0563; that for ATACTAC was -0.249; that for GCCGACC was 0.0265.

Consider CCAGGTC, for which the “uncleaved DNA left (log2)” value was 0.0407.

On to GAGTGTA, for which the “uncleaved DNA left (log2)” value came to 0.0326.

For the sequence CGGTGCA, the “uncleaved DNA left (log2)” value was 0.0818. In the case of ATTCAGT, the “uncleaved DNA left (log2)” value was -0.173. The value for CATAGGG was 0.0276; that for ATATCTG was 0.0463. As for TGCGGGC, the “uncleaved DNA left (log2)” value was -0.00233. The same measure for CCGCGAC: 0.0744; for CCCAGCA: -0.081. The same measure for TAGCAAC: -0.0854.

For GAAACAC, the “uncleaved DNA left (log2)” value was determined as 0.0493.

As to TAGGTGT, the “uncleaved DNA left (log2)” value turned out to be 0.0492. The same measure for ATCGGGT: 0.078; for TGGAGCG: 0.0707.

As for ACATCAC, the “uncleaved DNA left (log2)” value is -0.0293.

In the case of AAATTAC, the “uncleaved DNA left (log2)” value was -0.0266. The same measure for TACAAGG: 0.169. For the sequence CCACTTG, the “uncleaved DNA left (log2)” value is -0.0975. On to ACAAGGC, for which the “uncleaved DNA left (log2)” value was 0.0972. The same measure for GCATGCT: -0.15; for GATATAC: 0.0677; for CGCCCAA: 0.0864. The value for TCCACAA was -0.0488.

In the case of AGCTTCC, the “uncleaved DNA left (log2)” value is -0.0355. The value for TTGAGGC was -0.0892; that for GCCAACA was -0.0273; that for TCCCGAC was -0.0418. The value for CGTCTAG was -0.0786; that for TAGCGCG was 0.0557; that for TAGGCAT was 0.138. The same measure for TGGGGCG: 0.102; for TACGGCT: -0.092; for GCTCCAA: -0.22. In the case of TGATTGC, the “uncleaved DNA left (log2)” value is -0.111.
